This note sets out measurements from paper PMC5700166.

Common to all, as to test: protein-binding microarray (PBM)
Holding throughout (settings): PBM: ~300 nM protein, 6 mM HEPES pH 7.8, 80 mM KCl, 0.5 mM EDTA, 0.5 mM EGTA, 6% glycerol, 35 ng/ul poly-dIdC, 1% milk, 1 h, room temperature; Ap Aiptasia and Nv Nematostella (sea anemones) / Co Capsaspora / Aq Amphimedon (sponge) / Dm Drosophila / Hu human; RHD is the Rel homology domain; high values mean tight binding; most listed sequences are background and not binding sites; double strand, one strand shown

The target of one experiment is T1, GST-Ap-NF-kB RHD (UniProt A0A913YAJ5).
T1 sequence: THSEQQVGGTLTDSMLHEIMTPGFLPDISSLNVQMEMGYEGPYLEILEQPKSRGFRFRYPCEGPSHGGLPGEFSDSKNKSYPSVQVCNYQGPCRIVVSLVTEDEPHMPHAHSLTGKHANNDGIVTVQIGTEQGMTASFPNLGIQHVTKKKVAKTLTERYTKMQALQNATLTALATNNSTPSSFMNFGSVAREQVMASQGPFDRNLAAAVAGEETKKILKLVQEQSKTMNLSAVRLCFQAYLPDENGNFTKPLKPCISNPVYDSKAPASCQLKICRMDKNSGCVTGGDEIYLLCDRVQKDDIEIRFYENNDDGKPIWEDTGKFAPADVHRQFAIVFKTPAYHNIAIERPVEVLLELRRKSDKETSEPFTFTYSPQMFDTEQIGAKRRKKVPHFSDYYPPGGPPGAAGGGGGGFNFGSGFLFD

Experiment [1] has as its target T2, GST-Nv-NF-kB (Cys allele) (UniProt E5G601).
T2 sequence: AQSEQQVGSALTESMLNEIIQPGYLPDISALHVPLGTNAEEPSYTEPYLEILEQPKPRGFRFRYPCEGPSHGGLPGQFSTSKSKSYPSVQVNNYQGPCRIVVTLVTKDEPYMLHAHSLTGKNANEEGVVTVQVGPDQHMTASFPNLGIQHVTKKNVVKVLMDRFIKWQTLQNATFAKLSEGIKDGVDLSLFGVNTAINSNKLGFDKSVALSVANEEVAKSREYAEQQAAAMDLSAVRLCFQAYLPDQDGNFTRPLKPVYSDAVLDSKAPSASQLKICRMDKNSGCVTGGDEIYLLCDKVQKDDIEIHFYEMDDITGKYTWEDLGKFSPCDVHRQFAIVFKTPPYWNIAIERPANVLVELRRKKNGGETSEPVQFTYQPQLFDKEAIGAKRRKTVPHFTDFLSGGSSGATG

The next experiment addresses T3, GST-Co-NF-kB (UniProt F1ARL5).
T3 sequence: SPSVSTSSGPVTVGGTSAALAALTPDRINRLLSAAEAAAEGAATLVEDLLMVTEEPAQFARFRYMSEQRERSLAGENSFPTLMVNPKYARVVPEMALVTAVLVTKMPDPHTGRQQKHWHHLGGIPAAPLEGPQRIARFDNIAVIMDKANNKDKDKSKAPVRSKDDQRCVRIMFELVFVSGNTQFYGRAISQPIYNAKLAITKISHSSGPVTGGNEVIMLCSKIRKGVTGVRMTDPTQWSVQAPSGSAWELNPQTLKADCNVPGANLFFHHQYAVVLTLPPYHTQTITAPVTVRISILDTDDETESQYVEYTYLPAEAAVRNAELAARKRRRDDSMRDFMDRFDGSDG

The target in another experiment is T4, GST-Dm-Relish (UniProt Q94527).
T4 sequence: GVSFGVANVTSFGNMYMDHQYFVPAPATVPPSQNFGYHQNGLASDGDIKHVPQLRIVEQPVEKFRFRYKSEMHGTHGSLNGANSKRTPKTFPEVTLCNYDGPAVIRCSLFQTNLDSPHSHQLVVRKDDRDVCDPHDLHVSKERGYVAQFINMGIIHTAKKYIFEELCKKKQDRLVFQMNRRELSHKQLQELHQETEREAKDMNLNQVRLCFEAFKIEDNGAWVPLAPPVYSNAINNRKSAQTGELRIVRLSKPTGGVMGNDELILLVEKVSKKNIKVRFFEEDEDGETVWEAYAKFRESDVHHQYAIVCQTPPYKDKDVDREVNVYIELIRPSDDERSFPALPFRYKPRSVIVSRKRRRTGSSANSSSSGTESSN

Another experiment deals with T5, GST-Aq-NF-kB (UniProt A9Y5G7).
T5 sequence: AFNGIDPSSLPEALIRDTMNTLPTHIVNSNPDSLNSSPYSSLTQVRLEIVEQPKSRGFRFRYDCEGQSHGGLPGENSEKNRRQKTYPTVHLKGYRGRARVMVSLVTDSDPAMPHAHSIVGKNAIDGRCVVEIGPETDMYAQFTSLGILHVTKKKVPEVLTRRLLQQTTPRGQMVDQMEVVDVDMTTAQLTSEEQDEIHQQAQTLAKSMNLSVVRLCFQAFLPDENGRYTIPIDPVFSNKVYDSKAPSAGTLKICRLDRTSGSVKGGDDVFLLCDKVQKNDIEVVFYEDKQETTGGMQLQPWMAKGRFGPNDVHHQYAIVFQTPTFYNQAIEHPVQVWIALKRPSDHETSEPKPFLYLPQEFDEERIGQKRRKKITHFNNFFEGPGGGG

The entries are a selection whose mix differs from that of the whole data set. The list includes weakly bound sequences.

As for “CCGATTAACATCAGCATAAGCAATGATGTTAATCGGGTCTTGATTCGCTTGACGCTGCTG”, the binding signal was -0.662 z-score with GST-Ap-NF-kB RHD; -1.04 z-score in experiment [1]; -1.08 z-score with GST-Co-NF-kB; -0.706 z-score in the experiment with GST-Dm-Relish; -0.297 z-score in the experiment with GST-Aq-NF-kB.
On the same counts, the results for “CCGATTAACATCATACCTATAGTTGATGTTAATCGGGTCTTGATTCGCTTGACGCTGCTG” are -0.232 z-score, 0.201 z-score, 0.675 z-score, -0.093 z-score and -0.404 z-score.
For “CCGATTAACATCATCGGCCTTAATGATGTTAATCGGGTCTTGATTCGCTTGACGCTGCTG”, the binding signal with GST-Ap-NF-kB RHD is -0.525 z-score; in experiment [1], 0.22 z-score; in the experiment with GST-Co-NF-kB, -1.56 z-score; in the experiment with GST-Dm-Relish, -0.74 z-score; with GST-Aq-NF-kB, -0.361 z-score.
As for “CCGATTAACATCACTGTACGCCTTGATGTTAATCGGGTCTTGATTCGCTTGACGCTGCTG”, the binding signal is 0.289 z-score with GST-Ap-NF-kB RHD; -0.547 z-score in experiment [1]; 0.085 z-score with GST-Co-NF-kB; -0.28 z-score with GST-Dm-Relish; -0.00577 z-score with GST-Aq-NF-kB.
“CCGATTAACATCAGGTATCACATTGATGTTAATCGGGTCTTGATTCGCTTGACGCTGCTG”: the binding signal with GST-Ap-NF-kB RHD was -0.423 z-score; in experiment [1] it was -0.727 z-score; in the experiment with GST-Co-NF-kB it was 0.462 z-score; in the experiment with GST-Dm-Relish it was -0.278 z-score; with GST-Aq-NF-kB, -0.451 z-score.
In the same order, the values of “CCGATTAACATCAAACTCCATCCTGATGTTAATCGGGTCTTGATTCGCTTGACGCTGCTG” are -0.875 z-score, -0.551 z-score, 0.0766 z-score, -0.364 z-score and -0.103 z-score.
In the same order, the values of “CCGATTAACATCACAGTAACGGTTGATGTTAATCGGGTCTTGATTCGCTTGACGCTGCTG” are -0.159 z-score, -0.523 z-score, 0.133 z-score, -0.0235 z-score and -0.281 z-score.
On the same counts, the results for “CCGATTAACATCACAACCAAGGATGATGTTAATCGGGTCTTGATTCGCTTGACGCTGCTG” are -0.251 z-score, -1.03 z-score, -0.212 z-score, -0.51 z-score and -0.29 z-score.
On to “CCGATTAACATCACTGTAAGCCTTGATGTTAATCGGGTCTTGATTCGCTTGACGCTGCTG”, for which the binding signal with GST-Ap-NF-kB RHD is -0.219 z-score; in experiment [1] it was -1.04 z-score; in the experiment with GST-Co-NF-kB, -0.587 z-score; with GST-Dm-Relish it was -0.365 z-score; with GST-Aq-NF-kB it was -0.44 z-score.
As to “CCGATTAACATCACTACACGAGCTGATGTTAATCGGGTCTTGATTCGCTTGACGCTGCTG”, the binding signal is 0.379 z-score with GST-Ap-NF-kB RHD; -0.279 z-score in experiment [1]; 0.14 z-score in the experiment with GST-Co-NF-kB; 0.361 z-score with GST-Dm-Relish; -0.285 z-score with GST-Aq-NF-kB.
On the same counts, the results for “CCGATTAACATCATCGCATATGCTGATGTTAATCGGGTCTTGATTCGCTTGACGCTGCTG” are -0.403 z-score, -1.19 z-score, -0.951 z-score, -0.706 z-score and -0.583 z-score.
As to “CCGATTAACATCAGGATATTCCATGATGTTAATCGGGTCTTGATTCGCTTGACGCTGCTG”, the binding signal with GST-Ap-NF-kB RHD is -0.315 z-score; in experiment [1] it was -0.772 z-score; in the experiment with GST-Co-NF-kB it was -0.454 z-score; with GST-Dm-Relish, 0.545 z-score; in the experiment with GST-Aq-NF-kB, 0.627 z-score.
On the same counts, the results for “CCGATTAACATCAGATTTTCCGCTGATGTTAATCGGGTCTTGATTCGCTTGACGCTGCTG” are -0.232 z-score, 0.476 z-score, 0.194 z-score, -0.0969 z-score and 0.427 z-score.
On the same counts, the results for “CCGATTAACATCAATGATAACAATGATGTTAATCGGGTCTTGATTCGCTTGACGCTGCTG” are -1.48 z-score, -0.17 z-score, -0.37 z-score, -0.254 z-score and -0.114 z-score.
